Assay results from the supplement of paper PMC5499739.
The full ranking holds about 16,000 sequences; the median of “Z-score” is about -0.37, and the highest 2% start at about 3.1. This is one part of the list.

What follows are sequences tested on RBM10 RRM1-ZnF-RRM2 (GST-tagged construct) (assay: RNAcompete 7-mer binding Z-score; higher = stronger binding preference).
Procedure, shortened: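 Bound RNA was identified by microarray hybridisation after GST-tagged RBM10 constructs (20 pmol) had been mixed with 1.5 nmol of a designed pool of 241 399 RNAs up to 41 nt, transcribed from microarray-derived DNA templates. Binding ran for 30 min at 4°C in 1 ml Hepes pH 7.8 buffer with KCl, NaCl, glycerol, DTT, BSA and glutathione Sepharose beads, with four 2-min washes at 4°C afterwards. For every heptamer motif, a one-sided Z-score for enrichment was computed across the probes that contained it.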

Row | Sequence | RNAcompete 7-mer binding Z-score
1 | GUCGCCC | -0.73
2 | GAAUGAU | 0.202
3 | UGCCCUG | -0.632
4 | CGGGUAG | 2.23
5 | CUUUUUA | -0.952
6 | GUGUACA | 0.527
7 | CAUGAAC | -0.0197
8 | AGUAGUC | -0.289
9 | CAGCCGC | -0.53
10 | ACUAGGA | 0.742
11 | CACCUGC | -0.825
12 | GACAAUU | -0.439
13 | AGAGCCU | -1.09
14 | CGUGAUU | -0.435
15 | AACUGUG | 0.148
16 | AACCACC | -0.632
17 | AGUCAUG | 0.0313
18 | AAAACAC | -0.267
19 | GGAGAUA | 1.92
20 | CGAGGGU | 3.55
21 | GUCAUUG | -0.235
22 | ACAGAUG | 0.468
23 | GUGUAAA | 0.607

Row | Sequence | RNAcompete 7-mer binding Z-score
24 | CUUAGAU | -0.675
25 | AAAAGCA | -0.0197
26 | CUGCUGU | -0.799
27 | CUUAUCA | -0.77
28 | GGGCAAC | 2.2
29 | AAUCGUU | -0.635
30 | AACCCAC | -0.69
31 | UUAUUGA | -0.355
32 | CCGGGAG | 0.854
33 | UAAAAGC | -0.515
34 | AAGCACA | -0.351
35 | UAGGGCC | 0.796
36 | GCUCGCG | -0.475
37 | AUGUAGU | 0.326
38 | GACAGAA | 0.25
39 | GGCUCGU | -0.0925
40 | GAACGUG | 0.643
41 | AAAAAAC | -0.271
42 | CCCCAUA | -0.541
43 | AGAUUCG | 0.0459
44 | CUUCGCA | -0.69
45 | CUCACAU | -0.81
46 | CACUCUC | -0.854

Row | Sequence | RNAcompete 7-mer binding Z-score
47 | CAGAGGC | 0.774
48 | CCACGGA | 0.235
49 | CGUGUAU | -0.154
50 | CGACAAG | 0.17
51 | GUUCCAC | -0.482
52 | AGAGUCG | 0.865
53 | AGAACGC | -0.723
54 | AAUGUGG | 2.07
55 | CAGGAUU | 0.574
56 | GUGUCGC | 0.0277
57 | GCAGGGU | 3.35
58 | CAUCGAU | -0.522
59 | ACACACU | -0.683
60 | GUUGGCA | 1.1
61 | AUCCUGC | -1.01
62 | GUGUGCU | 0.151
63 | AAGACUG | 0.00944
64 | AUUAGGG | 2.72
65 | CAACCAG | -0.0925
66 | ACAGCCC | -0.701
67 | ACUGUUC | -0.934
68 | CCCAUAG | -0.628
69 | CGUGCGU | -0.0379

Row | Sequence | RNAcompete 7-mer binding Z-score
70 | CAGGGCA | 2.55
71 | ACAAGGG | 3.52
72 | GAAUUGC | 0.0641
73 | AUAUAGG | 1.38
74 | UGCUAUG | -0.42
75 | AUGCAGU | 0.141
76 | GAAGUGU | 1.09
77 | CAAAUGU | -0.311
78 | UCACAAA | -0.486
79 | AGCGCGG | 1.04
80 | AAGACGA | 0.629
81 | AGCCUUU | -0.985
82 | CGACCCC | -0.719
83 | UUUCACC | -0.792
84 | GUACCCU | -0.482
85 | GUGAGGU | 2.97
86 | UCAGGGU | 1.23
87 | AUGGCGA | 1.92
88 | AUUUAAG | -0.366
89 | AUCGGCG | 0.337
90 | CUGGACC | -0.577
91 | CAGUCAC | -0.431
92 | CUGGGGG | 1.81

Row | Sequence | RNAcompete 7-mer binding Z-score
93 | GCCGUUA | -0.686
94 | UGCCUAC | -0.661
95 | AACUGGA | 0.825
96 | AACGUUU | -0.679
97 | UUCUAUA | -0.697
98 | CAUGCCU | -0.846
99 | GAAGGUG | 4.37
100 | CUCUAAA | -0.668
101 | ACGUAGU | 0.0896
102 | CCACCUU | -0.908
103 | GGGCCGU | 0.64
104 | CCUGGGA | 0.224
105 | ACAUUGA | -0.333
106 | GGUUCGU | 0.483
107 | GGCGUCU | -0.122
108 | CAAAGCU | -0.457
109 | GCGUUUU | -0.475
110 | UCCAGCC | -0.799
111 | GGCUGUU | -0.38
112 | GUAUGUG | 0.945
113 | AGCCGCC | -0.468
114 | AGAAUAA | -0.22
115 | UAAUAGA | -0.00877

Row | Sequence | RNAcompete 7-mer binding Z-score
116 | UUUAAUU | -0.602
117 | AAUCCGU | -0.679
118 | GAAACGA | 0.483
119 | AGGAACA | 0.935
120 | UUAAGUA | -0.384
121 | CUUCCGU | -0.752
122 | CGAGCCG | -0.296
123 | UACGGUU | 0.181
124 | CUUGAAU | -0.846
125 | AGGCGCG | 0.472
126 | ACAUAGC | -0.34
127 | CUCGUGA | -0.675
128 | ACCCCAA | -0.617
129 | UCCGAUU | -0.777
130 | GAGAUAU | 0.37
131 | UGUGGGC | 1.83
132 | UCCUCGG | -0.581
133 | GUAAUUU | -0.42
134 | AAACUUC | -0.621
135 | AGUAGAA | 0.916
136 | GAUGACC | -0.0415
137 | AGCGGAC | 1.1
138 | AUACUGU | -0.675

Row | Sequence | RNAcompete 7-mer binding Z-score
139 | UGUAGUC | -0.369
140 | CCCCUUU | -0.836
141 | ACUAGAA | -0.187
142 | GCCCAUA | -0.828
143 | UUUAUUA | -0.628
144 | GGACUGC | 0.0969
145 | CCGGCCG | -0.584
146 | UCCCGGG | -0.0161
147 | GUAAACU | -0.0853
148 | GAUUACA | 0.253
149 | CGCCCAU | -0.945
150 | AUAUCAA | -0.333
151 | AAAGAUU | -0.384
152 | UAUGACC | -0.672
153 | CUCUUGC | -0.908
154 | GCUGGGG | 2.46
155 | CGUCGAC | -0.504
156 | GAAUUAC | -0.347
157 | GUCAUGA | 0.0167
158 | GUUCGAA | -0.0925
159 | CUCGCGC | -0.821
160 | GCCAGCC | -0.613
161 | UCUUUAU | -0.763

Row | Sequence | RNAcompete 7-mer binding Z-score
162 | ACCAAAA | -0.428
163 | UUUAAGU | -0.639
164 | GCGAGCU | 0.177
165 | GGGCUGG | 2.01
166 | UUUACGA | -0.577
167 | UUCUGUC | -0.806
168 | UUGGCGU | 0.279
169 | GUCUACC | -0.442
170 | GGCGUCC | -0.0452
171 | GUGAUUU | -0.406
172 | UUCGUUA | -0.646
173 | AAUGAUC | -0.431
174 | ACCCUUA | -1.07
175 | CUAAGCA | -0.657
176 | AUCGCCU | -1.02
177 | GCUUAGA | -0.398
178 | AAUGGAA | 3.27
179 | CGCGAAG | -0.278
180 | UUCGAAU | -0.53
181 | UCCACGG | -0.129
182 | GAGAUGA | 1.2
183 | CGAACCG | -0.504
